# The other results are listed elsewhere or left out. Antibody binding of pooled human sera (four to six donors per pool; dilution not stated) to peptides of the Trypanosoma cruzi antigen TSSA on microarrays. Quantile-normalised fluorescence in arbitrary units, mean of duplicate arrays; higher = more binding. No active / inactive call. The uninfected pools are read here as the healthy donors of the same country. The strongest signals lie near the top of the scale (about 60,000).
# Columns and labels:
# Test in all cases: antibody binding signal (normalised fluorescence) (arbitrary fluorescence units); higher = stronger serum antibody binding to peptide
# [1] = test system: pooled sera of chronic Chagas disease patients, Bolivia
# Procedure: (§1)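 Microarray of 15-residue peptides over residues 30-55 of Trypanosoma cruzi TSSAII, each with 1 to 10 substitutions at naturally variable positions, probed with one serum pool per country.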
# [2] = test system: pooled sera of chronic Chagas disease patients, Brazil
# Procedure: as §1
# [3] = test system: pooled sera of chronic Chagas disease patients, Colombia
# Procedure: as §1
# [4] = test system: pooled sera of chronic Chagas disease patients, Mexico
# Procedure: as §1
# [5] = test system: pooled sera of chronic Chagas disease patients, USA
# Procedure: as §1
# [6] = test system: pooled sera of uninfected people, Argentina
# Procedure: as §1
# [7] = test system: pooled sera of uninfected people, Bolivia
# Procedure: as §1
# [8] = test system: pooled sera of uninfected people, Brazil
# Procedure: as §1
# [9] = test system: pooled sera of uninfected people, Colombia
# Procedure: as §1
# [10] = test system: pooled sera of uninfected people, Mexico
# Procedure: as §1
# [11] = test system: pooled sera of uninfected people, USA
# Procedure: as §1
Sequence,antibody binding signal [1],antibody binding signal [2],antibody binding signal [3],antibody binding signal [4],antibody binding signal [5],antibody binding signal [6],antibody binding signal [7],antibody binding signal [8],antibody binding signal [9],antibody binding signal [10],antibody binding signal [11]
KENKAATGGAPSPPG,423,1760,289,255,1980,313,124,124,112,96.8,232
TENKTATGGAPSQSG,1080,1090,372,798,525,378,237,262,153,594,225
KEKKPAAGEAPSPSG,225,746,133,147,10900,122,92.9,98.3,76.2,65.9,359
KENKAAAGGTPSQSG,199,223,947,167,806,140,90.3,360,129,108,144
KDKKPATGGAPSPPG,452,395,578,412,1080,288,258,91.8,93.7,101,110
TPPSGTENKPATGET,45300,47800,318,5840,27900,9360,1080,484,471,2770,3370
KDNKTAAGETPSPSG,199,306,2110,265,1470,505,282,189,262,219,1900
SGKDKKPAAGGTPSP,210,368,3080,981,1180,102,89.5,506,739,81,91.4
TDNKPAAGETPSPSG,303,14600,414,242,4040,114,461,235,190,455,1940
TEKKPAAGEAPSPSG,297,6990,359,330,14000,105,210,215,76.4,182,682
KKPAAGETPSPPGAS,256,2450,176,181,516,373,364,109,166,84.3,552
GTDKKTATGEAPSQS,25400,20200,1590,465,21400,216,195,193,92.7,210,111
PSGKDKKTATGEAPS,3650,7760,2390,2410,15200,198,400,92.8,130,81.4,95.7
TENKTATGGAPSPPG,1350,682,455,811,838,384,188,337,148,402,185
ENKTAAGGTPSQSGA,1510,593,6200,512,1560,426,250,1650,197,2500,233
SGKDNKAATGEAPSP,29000,33500,564,591,27100,238,326,165,338,102,122
GKENKPATGETPSPP,27500,36500,11700,12900,27600,752,562,236,161,1630,626
TENKAATGGAPSQSG,1100,4370,532,698,2970,261,168,218,163,182,200

Sequence,antibody binding signal [1],antibody binding signal [2],antibody binding signal [3],antibody binding signal [4],antibody binding signal [5],antibody binding signal [6],antibody binding signal [7],antibody binding signal [8],antibody binding signal [9],antibody binding signal [10],antibody binding signal [11]
TDKKAATGEAPSQSG,33500,30300,202,327,23900,443,107,161,540,208,201
PPSGTDKKTATGGAP,3070,17300,2950,29200,1760,673,401,197,512,947,453
KKAAAGETPSPSGAS,253,471,228,162,1180,257,159,92,85.4,88.8,250
TDKKPAAGETPSQSG,325,10300,261,209,1980,85.2,353,157,734,177,99.2
GKDNKTATGGAPSPS,268,1430,4820,4660,2780,253,138,117,162,109,122
DNKPAAGETPSQSGA,631,22100,324,178,3400,88.5,276,321,216,257,98.9
EKKAATGGTPSPSGA,593,494,2390,833,1340,342,740,833,1090,150,593
GTDKKAAAGETPSQP,1060,30800,2520,406,1830,101,331,142,614,218,125
TENKPATGGAPSQPG,15000,27500,361,1070,3850,363,1190,373,161,233,248
SGKDNKAAAGEAPSP,335,13700,1880,1110,11200,302,317,140,563,83.5,116
STPPSGTENKPATGG,48900,52900,366,10500,49000,9410,2070,812,845,681,863
KDKKTAAGGAPSQSG,215,267,2520,308,226,136,94.2,131,128,111,130
GKDKKPAAGEAPSQP,3770,32800,2510,3310,11900,111,71.6,87.2,122,70.4,67.4
PSGTDKKAATGGAPS,264,4610,4320,2360,1900,386,510,200,430,600,221
KTAAGETPSQSGASS,2030,2270,147,596,192,221,354,167,162,343,175
PSGTENKAATGETPS,28400,42400,1110,1830,17700,1100,401,267,362,291,214
PPSGTENKAAAGEAP,45800,48900,373,1420,16200,1770,430,263,540,246,666
GKDNKTAAGGTPSQP,338,715,4710,2520,2570,304,103,233,174,484,146
